In the RNAGym collection of RNA variant scans (doi:10.7554/elife.90254):
Read counts are not given, so values of variants with three or more changes are uncertain.

B1: OR4K15 (parent)
chain: GUUAACGGUCAUAGGCCAUGGAAACUAGGAGCACCAUUUCGCUGCCAGUGAAGAAAUGAACAAAGAAAAUCUGGGCCAGGCAGGCAUCAAAAGAAAUAGUCUUGCGCUCAACCAGAAAGUCUGUAAUCAUUUUAAGGGUA

Variants of: B1
Experiment: self-cleavage, relative activity (ratio to wild type); higher = more cleavage; in vitro, sequencing; the parent is a self-cleaving ribozyme

Row | Variant | self-cleavage
1 | GUUAACGGUCAUAGGCCAUGGAAACUAGGAGCACCAUUUCGCUGCCAGUGAAGAGAUGAGCAAAGAAAAUCUGGGCCAGGCAGGCAUCAAAGGAAAUAGUCUUGCGCACAACCAGAAAGUCUGUAAUCAUUUUAAGGGUA [A55G A60G A92G U108A] | 0.03
2 | GUUAACGGUCAUAGGCCAUGGAAACUAGGAGCACCAUUUCGCUGCCAGUGAAGAGAUGAACAAAGAAAAUCUGGGCCGUGCAGGCAUCAAAAGAAAUAGUCUCGCGCUCAACCAGAAAGUCUGUAAUCAUUUCAAGGGUA [A55G A78G G79U U103C U133C] | 0.05
3 | GUUAACGGUCAUAGGCCAUGGAAACUAGGAGCACCAUUUCGCUGCCAGUGAAGAGAUGAACAAAGAAAAUCUGGGCCAGGCGGGCAUCAAAAGAAAUAGUCUUGCGCUCAACCAGAAUGUCUGUAAUCAUUUUAAGGGUU [A55G A82G A118U A140U] | 0.12
4 | GUUAACGGUCAUAGGCCAUGGAAACUAGGAGCACCAUUUCGCUGCCAGUGAAGAGAUGAACAAAGAAUAUCUGGGCCAGGCAGGCAUCAAAAGAAAUAGUCUUGCGCUCAACCAGAAAGUCUGUAAUCAUUUUAAGGGCG [A55G A68U U139C A140G] | 1.62
5 | GUUAACGGUCAUAGGCCAUGGAAACUAGGAGCACCAUUUCGCUGCCAGUGAAGAGAUGAGCAAAGAAAAUCUGGGCCAUGCAGGCAUCAAAAGAAAUAGUCUUGCGCUCAACCAGAAAGUCUGUAAUCAUUUUAAGGGUA [A55G A60G G79U] | 0.21
6 | GUUAACGGUCAUAGGCCAUGGAAACUAGGAGCACCAUUUCGCUGCCAGUGAAGAGAUGAACAAAGAAAAUCUGGGCCAGGCAGGCAUCAGGAGAAAUAGUCUUGCGCUCGACCAGAAAGUCUGUAAUCAUUUUAAGGGUA [A55G A90G A91G A110G] | 0.06
7 | GUUAACGGUCAUAGGCCAUGGAAACUAGGAGCACCAUUUCGCUGCCAGUGAAGAGAUGAACAAGGAAAAUCUGGGCCAGGCAGGCAUCAAAAGGAAUAGUCUUGCGCUCAACCAGAAAGUCUGUAAUCAUUUUAAGGGUA [A55G A64G A94G] | 1.69
8 | GUUAACGGUCAUAGGCCAUGGAAACUAGGAGCACCAUUUCGCUGCCAGUGAAGAGAUGAACAAAGAAGAUCUGGGCCAGGCAGGCAUCAAAAGAAAUAGUCUUGCGCUCAACCAGAAAGUCUAUAAUCAUUUUAAGGGUA [A55G A68G G123A] | 1.18
9 | GUUAACGGUCAUAGGCCAUGGAAACUAGGAGCACCAUUUCGCUGCCAGUGAAGAGAUGAACAACGAAAAUCUGGGCCAGGCAGGCAUCAAAAGAAAUAGUCUUGCGCUCAACCAGAUAGUCUGUAAUCAUUUUAAGGGUA [A55G A64C A117U] | 1.01
10 | GUUAACGGUCAUAGGCCAUGGAAACUAGGAGCACCAUUUCGCUGCCAGUGAAGAGAUGAACUAAGAAAAUCUGGGCCAGGCAGGCAUCAAAAGAAAUAGUCUUGCGCUCAACCAGAAUGUCUGUAAUCAUUUUAAGGGUA [A55G A62U A118U] | 0.64
11 | GUUAACGGUCAUAGGCCAUGGAAACUAGGAGCACCAUUUCGCUGCCAGUGAAGAGAUGAACUAAGAAAAUCUGGGCCAGGCAGGCAUCAAAAGAAAUAGUCUUGCGCUCAACCAGAAAGUCUGUAAUCAUUAUAAGGGUA [A55G A62U U132A] | 1.82
12 | GUUAACGGUCAUAGGCCAUGGAAACUAGGAGCACCAUUUCGCUGCCAGUGAAGAGGUGAACAAAGAAAAUCUGGGCCAGGCAGGCAUCAAAGGAAAUAGUCUUGCGCUCAACCAGAAAGUCUGUAAUCAUCUUAAGGGUA [A55G A56G A92G U131C] | 2.11
13 | GUUAACGGUCAUAGGCCAUGGAAACUAGGAGCACCAUUUCGCUGCCAGUGAAGAGAUGAACAAAGAAGAUCUGGGCCAGGCAGGCUACAAAGGAAAUAGUCUUGCGCUCAACCAGAAAGUCUGUAAUCAUUUUAAGGGUA [A55G A68G A86U U87A A92G] | 1.66
14 | GUUAACGGUCAUAGGCCAUGGAAACUAGGAGCACCAUUUCGCUGCCAGUGAAGAGAUGAACAAAGAGAAUCUGGGCCAGGCAGGCAUCAAAAGAAAUAGUCUUGCGCUCAACCAGAAAGUCUGUAUUCAUUUUAAGGGUA [A55G A67G A126U] | 0.85
15 | GUUAACGGUCAUAGGCCAUGGAAACUAGGAGCACCAUUUCGCUGCCAGUGAAGAGAUGAACAAAGGAAAUCUGGGCCAGGCAGGCAUCAAAAGAAAUAGUCUUGCGCUCAACCAGGAAGUCUGUAAUCAUUUUAAGGGUA [A55G A66G A116G] | 0.2
16 | GUUAACGGUCAUAGGCCAUGGAAACUAGGAGCACCAUUUCGCUGCCAGUGAAGAGAUGAACCGAGAAAAUCUGGGCCAGGCAGGCAUCAAAAGAAAUAGUCUUGCGCUCAACCAGAAAGUCUGUAAUCAUUUUAAGGGUA [A55G A62C A63G] | 1.36
17 | GUUAACGGUCAUAGGCCAUGGAAACUAGGAGCACCAUUUCGCUGCCAGUGAAGAGAUGAGCAAAGCAAAUCUGGGCCAGGCAGGCAUCAAAAGAAAUAGUCUUGCGCUCAACCAGAAAGUCUGUAAUCAUUUUAAGGGUA [A55G A60G A66C] | 1.14
18 | GUUAACGGUCAUAGGCCAUGGAAACUAGGAGCACCAUUUCGCUGCCAGUGAAGAGAUGAACAAAGAAAAUCUGGGCCAGGCUGGCAUCAAAAGAAAUAGUCUUGCGUUCAACCAGGAAGUCUGUAAUCAUUUUAAGGGUA [A55G A82U C107U A116G] | 0.01
19 | GUUAACGGUCAUAGGCCAUGGAAACUAGGAGCACCAUUUCGCUGCCAGUGAAGAGAUGAACAAAGAAAAUCUGGGCCGGGCAGGCAUCAUAAGAAAUAGUCUUGCGCUCAACCAGUAAGUCUGUAGUCAUUUUAAGGGUA [A55G A78G A90U A116U A126G] | 0.08
20 | GUUAACGGUCAUAGGCCAUGGAAACUAGGAGCACCAUUUCGCUGCCAGUGAAGAGAUGAACAGAGAAAACCUGGGCCAGGCAGGCAUCAAAAGAAAUAGUCUUGCGCUCAACCAGAAAGUCUGUAAUCAUUUUAAGGGUA [A55G A63G U70C] | 0.35
21 | GUUAACGGUCAUAGGCCAUGGAAACUAGGAGCACCAUUUCGCUGCCAGUGAAGAGGUGAACAAAGAGGAUCUGGGCCAGGCAGGCAUCAAAAGAAAUAGUCUUGCGCUCAACCAGAAAGUCUGUAAUUAUUUUAAGGGUA [A55G A56G A67G A68G C128U] | 1.46

Row | Variant | self-cleavage
22 | GUUAACGGUCAUAGGCCAUGGAAACUAGGAGCACCAUUUCGCUGCCAGUGAAGAGGUGAACAAAGAAAGUCUGGGCCAGGCAGGCAUCAAAAGAAAUAGUCUUGCGCUCAACCAGGAAGUCUGUAAUCAUUUUAAGGGUA [A55G A56G A69G A116G] | 0.24
23 | GUUAACGGUCAUAGGCCAUGGAAACUAGGAGCACCAUUUCGCUGCCAGUGAAGAGAUGGACAAAGAAAAUCUGGGCCAGGCAGGCAUCAAAAGAAAAAGUCUUGCGCUCAACCAGAAAGUCUGUAAUCAUUUUAAGGGUA [A55G A59G U97A] | 1.44
24 | GUUAACGGUCAUAGGCCAUGGAAACUAGGAGCACCAUUUCGCUGCCAGUGAAGAGAUGAACAAAGAAGAUCUGGGCCAGGCAGGCAUCGAAAGAAAUAGUCUUGCGCUCAACCGGAAAGUCUGUAAUCAUUUUAAGGGUA [A55G A68G A89G A114G] | 0.63
25 | GUUAACGGUCAUAGGCCAUGGAAACUAGGAGCACCAUUUCGCUGCCAGUGAAGAGAUGAACAAAGAAAAUCUGGGCCAGGCAGGCAUCGAAAGAGAUAGUCUUGCGCUCAGCCAGAAAGUCUGUAAUCAUUUUAAGGGUA [A55G A89G A95G A111G] | 0
26 | GUUAACGGUCAUAGGCCAUGGAAACUAGGAGCACCAUUUCGCUGCCAGUGAAGAGAUGAACUAAGAAAAUCUGGGCCAGGCAGGCAUCAAAAGGAAUAGCCUUGCGCUCAACCAGAAAGUCUGUAAUCAUUUUAAGGGUA [A55G A62U A94G U100C] | 2.23
27 | GUUAACGGUCAUAGGCCAUGGAAACUAGGAGCACCAUUUCGCUGCCAGUGAAGAGAUGGACUAAGAAAAUCUGGGCCAGGCAGGCAUCAAAAGAAAUAGUCUUGCGCUCAACCAGAAAGUCUGUAAUCAUUUUAAGGGUA [A55G A59G A62U] | 1
28 | GUUAACGGUCAUAGGCCAUGGAAACUAGGAGCACCAUUUCGCUGCCAGUGAAGAGAUGAUCAAAGAAAAUCUGGGCCAGGCAGGCAUCAAAAGAAAUAGUCCUGCGCUCAACCAGAAAGUCUGUAAUCAUUUUAAGGGUA [A55G A60U U102C] | 2.04
29 | GUUAACGGUCAUAGGCCAUGGAAACUAGGAGCACCAUUUCGCUGCCAGUGAAGAGAUGAGCAAAGAAAAUCUGGGCCAGGCAGGCAUCAAAAGAAAUAGUCUUGCGCUCAACCAGAAAGUCUGUAAUCAUUCUAAGGGUA [A55G A60G U132C] | 0.85
30 | GUUAACGGUCAUAGGCCAUGGAAACUAGGAGCACCAUUUCGCUGCCAGUGAAGAGAUGAACAAAGAAGAUCUGGGCCAGGCAGGCAUCAAGAGAAAUAGUCUUGUGCUCGACCAGAAAGUCUGUAAUCAUUUUAAGGGUA [A55G A68G A91G C105U A110G] | 0.01
31 | GUUAACGGUCAUAGGCCAUGGAAACUAGGAGCACCAUUUCGCUGCCAGUGAAGAGUUGAACAAAGAAAAUCUGGGCCAGGCAGGCAUCAAAAGAAAUAGUCUUGCGCUCAACCAGAAAGCCUGUAAUCAUUUUAAGGGUA [A55G A56U U120C] | 0.47
32 | GUUAACGGUCAUAGGCCAUGGAAACUAGGAGCACCAUUUCGCUGCCAGUGAAGAGAUGAACAAAGAAAGUCCGGGCCAGGCAGGCAUCAAAAGAAAUAGUCUUGCGCUCAACCAGAAAGUCUGUAAUCAUUUUAAGGGUA [A55G A69G U72C] | 0.07
33 | GUUAACGGUCAUAGGCCAUGGAAACUAGGAGCACCAUUUCGCUGCCAGUGAAGAGAUGAACAAAGAAAAUCUGGGCCGGGCAGGCAUCAAAAGAAAUAGUCUUGCGCUCAACCAGAAAGUCUGUAACCAUUUUAAGGGUA [A55G A78G U127C] | 0.12
34 | GUUAACGGUCAUAGGCCAUGGAAACUAGGAGCACCAUUUCGCUGCCAGUGAAGAGAUGGACAAAGAAAACCUGGGCCAGGCAGGCAUCAAAAGAAAUAGUCUUGCGCUCAACCAGAAAGUCUGUAAUCAUUUUAAGGGUA [A55G A59G U70C] | 0.58
35 | GUUAACGGUCAUAGGCCAUGGAAACUAGGAGCACCAUUUCGCUGCCAGUGAAGAGAUGAACAAAGAAAAUCUGGGCCAGGCAGGCAUCGAAAGGAAUAGUCUUGCGCUCAACCAGAAAGUCGGUAAUCAUUUUAAGGGUA [A55G A89G A94G U122G] | 2.14
36 | GUUAACGGUCAUAGGCCAUGGAAACUAGGAGCACCAUUUCGCUGCCAGUGAAGAGAUGAACUAAGAAAAUCUGGGCCAGGCGGGCACCAAGAGAAAUAGUCUUGCGCUCAACCAGAAAGUCUGUAAUCAUUUUAAGGGUA [A55G A62U A82G U87C A91G] | 0.05
37 | GUUAACGGUCAUAGGCCAUGGAAACUAGGAGCACCAUUUCGCUGCCAGUGAAGAGAUGAACAAAGGAAAUCUGGGCCAGGCAGGCAUCAAAAGAAAUAGCCUUGCGCUCAACCAGAAAGUCUGUAAUCAUUUUAAGGGUA [A55G A66G U100C] | 1.83
38 | GUUAACGGUCAUAGGCCAUGGAAACUAGGAGCACCAUUUCGCUGCCAGUGAAGAGAUGAACAAAGAAAAUCUGGGCCAGGCAGGCGUCAAAUGAGAUAGUCUUGCGCUCAACCAGAAAGUCUGUAAUCAUUUUAAGGGUA [A55G A86G A92U A95G] | 1.67
39 | GUUAACGGUCAUAGGCCAUGGAAACUAGGAGCACCAUUUCGCUGCCAGUGAAGAGAUGAACGAAGAAAAUCUGGGCCAGGCAGGCAUCAAAAGAAAUAGUCUUGCGCUCAACCAGAAAGUCAGUAAUCAUCUUAAGGGUA [A55G A62G U122A U131C] | 2.18
40 | GUUAACGGUCAUAGGCCAUGGAAACUAGGAGCACCAUUUCGCUGCCAGUGAAGAGAUGAACAAAGAAAAUCUGGGCCAGGCGGGCAACAAAAGAAAUAGUCCUGCGCUCAACCAGAAAGUCUGUAAUCAUUUUAAGGGUA [A55G A82G U87A U102C] | 0.68
41 | GUUAACGGUCAUAGGCCAUGGAAACUAGGAGCACCAUUUCGCUGCCAGUGAAGAGAUGAACAAAGAAAAUCUGGGCCAGGCAGGCAUCGAAAGAAAUAGUCUCGCGCUCAACCAGAAAGUCUGUAAUCAUUUUAAGGGUA [A55G A89G U103C] | 0.19
